Data as given in publication PMC4336329 (PLoS ONE, 2015).
Among all 310,000 compounds or so, about 2,200 (0.71%) showed an effect of 50% or more. The effect is printed as a negative number. The list shows a part of the results.

Biological target: human ether-à-go-go-related gene (hERG) potassium channel (human, UniProt Q12809)
Assay: primary screen, population patch clamp on CHO cells stably expressing hERG

Sequence of human ether-à-go-go-related gene (hERG) potassium channel (Q12809 whole entry, looked up): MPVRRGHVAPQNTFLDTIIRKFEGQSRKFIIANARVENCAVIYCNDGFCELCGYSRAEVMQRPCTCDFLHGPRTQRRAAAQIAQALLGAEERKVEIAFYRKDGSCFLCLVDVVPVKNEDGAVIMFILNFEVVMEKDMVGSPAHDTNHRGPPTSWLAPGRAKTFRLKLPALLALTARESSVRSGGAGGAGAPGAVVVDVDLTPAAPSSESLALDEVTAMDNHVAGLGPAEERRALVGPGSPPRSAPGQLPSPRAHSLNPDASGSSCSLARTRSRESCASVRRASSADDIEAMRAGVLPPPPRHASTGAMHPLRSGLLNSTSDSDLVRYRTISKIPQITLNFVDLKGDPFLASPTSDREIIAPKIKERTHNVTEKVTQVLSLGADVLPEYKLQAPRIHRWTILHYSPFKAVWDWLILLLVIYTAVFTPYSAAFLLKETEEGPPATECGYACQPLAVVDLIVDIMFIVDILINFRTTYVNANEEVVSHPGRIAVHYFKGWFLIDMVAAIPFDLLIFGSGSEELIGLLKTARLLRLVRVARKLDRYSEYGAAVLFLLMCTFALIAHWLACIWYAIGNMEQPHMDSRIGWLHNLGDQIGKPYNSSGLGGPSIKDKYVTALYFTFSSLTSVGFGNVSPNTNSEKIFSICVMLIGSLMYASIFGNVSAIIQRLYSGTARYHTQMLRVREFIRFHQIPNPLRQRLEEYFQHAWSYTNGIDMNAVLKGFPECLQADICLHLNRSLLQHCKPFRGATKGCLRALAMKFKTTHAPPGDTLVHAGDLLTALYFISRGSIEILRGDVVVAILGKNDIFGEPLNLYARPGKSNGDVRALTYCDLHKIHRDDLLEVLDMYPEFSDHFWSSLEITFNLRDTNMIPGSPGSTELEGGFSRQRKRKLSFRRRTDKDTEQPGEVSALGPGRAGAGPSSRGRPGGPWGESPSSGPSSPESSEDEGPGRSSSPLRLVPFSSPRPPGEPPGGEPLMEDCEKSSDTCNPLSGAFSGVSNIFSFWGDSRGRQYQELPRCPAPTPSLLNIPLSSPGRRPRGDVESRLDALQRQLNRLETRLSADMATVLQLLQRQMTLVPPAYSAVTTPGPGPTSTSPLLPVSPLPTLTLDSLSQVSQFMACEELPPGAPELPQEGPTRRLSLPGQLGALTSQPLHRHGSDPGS

SMILES | hERG current change (%, negative = inhibition) at 1uM [%]
O=C(NC(=S)Nc1ccc(N2CCOCC2)cc1)c1cccc(Cl)c1 | 7.24
Clc1ccc2nc(C3CCN(Cc4ccccc4)CC3)[nH]c2c1 | -73.7
CCOn1c(=O)c(C)[n+]([O-])c2ccccc21 | -0.535
COC(=O)CNc1n[nH]c(=S)[nH]c1=O | 10.9
O=C(O)CC1S/C(=N\N=C/c2ccccc2O)N(c2ccc(O)cc2)C1=O (stereo not shown) | 14.1
Cc1cccc(-c2n[nH]c([N+](=O)[O-])n2)c1 | 16.6
COc1ccc(OC)c(CN2CCN(C(=O)c3cccc(S(=O)(=O)Nc4ccccc4OC)c3)CC2)c1 | 15.1
C=CCn1c(=O)/c(=C2/SC(C)=C(C)N2CC)s/c1=C1/C(=O)N(CC)C(=S)N1c1ccccc1 | 0.0913
Cc1cnc(-c2nnc(N(C)C(=O)C3CCCO3)s2)cn1 (stereo not shown) | 4.63
COc1ccccc1NC(=O)COC(=O)c1oc2ccccc2c1C | 9.42
COC(=O)c1ccc(C(=O)N2CCCC(Nc3ccc(F)c(F)c3)C2)cc1 (stereo not shown) | 7.81
COc1ccc(N2CCN(c3nc4c(c(=O)n(C)c(=O)n4C)n3CCCc3ccccc3)CC2)cc1 | 13.6
c1ccc(Nc2nc(Nc3ccccc3)nc(N3CCNCC3)n2)cc1 | 7.99
Cc1cccc(NC(=S)N/N=C/c2ccc3c(c2)OCO3)c1 | 6.61
COc1cccc(-c2nc(N3CCC(C)CC3)c3ccccc3n2)c1O | 9.79
CCOc1ccc(N(CCC#N)S(=O)(=O)c2ccc(OC)cc2)cc1 | -11.7
O=C(NCCc1ccccc1)C1CC(=O)N(C2CCCC2)C1 (stereo not shown) | 11.5
COc1ccc(/C=N\N2CCN(Cc3ccccc3Cl)CC2)cc1.Cl | -8.27
O=C(CCN1C(=O)C2CC=CCC2C1=O)Nc1nc(-c2ccc(F)c(F)c2)cs1 (stereo not shown) | -14.4
CCN(C(=O)c1cccs1)c1nc(-c2ccc(OC)cc2)cs1 | 13.4
CC(=O)C1=C(O)CC(C)(C)CC1=NCc1nc2ccccc2[nH]1 | 8.31
Cc1ccc2cc(CN(C(=O)c3ccco3)c3ccccc3)c(=O)[nH]c2c1 | -3.6

SMILES | hERG current change (%, negative = inhibition) at 1uM [%]
NC(=O)N/N=C/c1ccccc1OC(=O)c1cc2ccccc2oc1=O | 5.7
Cc1cccc(N2CC(C(=O)OCC(=O)c3ccc(OC(=O)c4cccs4)cc3)CC2=O)c1C (stereo not shown) | 9.92
CC(C)c1ccc(C2c3[nH]c4ccccc4c3C[C@H]3C(=O)N(c4ccccc4C(=O)N4CCC(C(=O)O)CC4)C(=O)N23)cc1 (stereo partly shown) | 9.85
Cc1nc(SC(C)C(=O)Nc2cccc(C(F)(F)F)c2)c2c(C)c(C(=O)O)sc2n1 (stereo not shown) | 9.81
Cc1sc(NC(=O)CN(C(=O)c2ccccc2F)C2CCCC2)c(C(N)=O)c1C | 4.46
Cc1cccc(C)c1N(Cc1ccccc1F)S(C)(=O)=O | 8.55
CCn1nnnc1SCC(=O)NCc1ccc2c(c1)OCO2 | 16.1
CCOc1ccccc1N1Cc2cc(C)c(C)cc2C1 | -3.06
CCOCc1nnc(NC(=O)CCc2ccccc2)s1 | 10.1
CN(c1ccccc1)S(=O)(=O)c1cccc(NC(=O)Cc2c(F)cccc2Cl)c1 | -6
N#Cc1ccc(COc2cccc3cccnc23)cc1 | 0.932
CCOC(=O)C1CCN(C(=O)Nc2c(-c3ccccc3)noc2C)CC1 | 10.8
CC(C)CCNC1=NCCCCC1 | -5.32
O=C(Nc1ccc(F)cc1F)c1cc(-c2ccc3c(c2)OCO3)on1 | 10.7
CC(=O)NC(=S)Nc1sc2c(c1C(N)=O)CCC(C)C2 (stereo not shown) | 2.9
COc1ccccc1NS(=O)(=O)c1cccc(C(=O)N/N=C/c2ccc(OCC(=O)O)cc2)c1 | 11.5
O=C(Nc1ccccc1)C(=O)Nc1cccnc1 | 19.7
COc1ccc(C(=O)N2CCN(c3ccccc3Cl)CC2)cc1S(=O)(=O)NC1CC1 | 7.63
Cc1nc2nc(C)c(CCC(=O)N3CCN(c4ccccn4)CC3)c(C)n2n1 | 1.3
O=c1c(Cc2ccc(Cl)cc2Cl)c(O)ccn1CCCN1CCOCC1 | 7.79
CCc1ccccc1NC(=O)c1cccs1 | 1.03
